# In the supplement of paper PMC9588766:
# Where a name gives a salt, the structure may show the parent alone. The full ranking holds about 1,900 compounds; the median of “cell viability of compound + 1 nM pemigatinib relative to pemigatinib-only (DMSO) wells” is about 0.95, and the lowest 2% start at about 0.22. Some of the results follow.
# System: PDC-DUC18828
# Test: cell viability of compound + 1 nM pemigatinib relative to pemigatinib-only (DMSO) wells (fraction); PDC-DUC18828 is a patient-derived cholangiocarcinoma cell line; higher = less growth inhibition
# Settings: first compound 1 µM; pemigatinib concentration 1 nM; 72 h
# Description: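 Selleck Bioactive library screen in the patient-derived FGFR2 fusion-positive ICC cell line PDC-DUC18828 (500 cells/well). Each compound was tested at 1 uM with 1 nM pemigatinib, in triplicate, for 72 h. Viability was read by CellTiter-Glo and normalised to plate DMSO controls. Value is the paper's averaged normalised viability.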
row,SMILES,cell viability
1,Nc1nc(=O)n([C@@H]2CS[C@H](CO)O2)cc1F [Emtricitabine] + CCN1C(=O)N(c2c(F)c(OC)cc(OC)c2F)Cc2cnc3[nH]c(CN4CCOCC4)cc3c21 [pemigatinib],0.986
2,CC(O)c1cc(C(=O)N[C@@H](C)Cn2ccc(-c3ccc(C#N)c(Cl)c3)n2)n[nH]1 (some centres not stated) + CCN1C(=O)N(c2c(F)c(OC)cc(OC)c2F)Cc2cnc3[nH]c(CN4CCOCC4)cc3c21 [pemigatinib],0.919
3,CCCCCCNC(=O)n1cc(F)c(=O)[nH]c1=O [Carmofur] + CCN1C(=O)N(c2c(F)c(OC)cc(OC)c2F)Cc2cnc3[nH]c(CN4CCOCC4)cc3c21 [pemigatinib],0.907
4,Cc1nc(C(=O)NCC(=O)O)c(O)c2ccc(Oc3ccccc3)cc12 + CCN1C(=O)N(c2c(F)c(OC)cc(OC)c2F)Cc2cnc3[nH]c(CN4CCOCC4)cc3c21 [pemigatinib],0.913
5,COC(=O)C1=CO[C@@H](O)[C@@H]2C(CO)=CC[C@H]12 [Genipin] + CCN1C(=O)N(c2c(F)c(OC)cc(OC)c2F)Cc2cnc3[nH]c(CN4CCOCC4)cc3c21 [pemigatinib],0.923
6,O=c1c(O)c(-c2ccc(O)cc2)oc2cc(O)cc(O)c12 [Kaempferol] + CCN1C(=O)N(c2c(F)c(OC)cc(OC)c2F)Cc2cnc3[nH]c(CN4CCOCC4)cc3c21 [pemigatinib],0.999
7,NC[C@@](O)(c1ccc(Cl)cc1)c1ccc(-c2cn[nH]c2)cc1 + CCN1C(=O)N(c2c(F)c(OC)cc(OC)c2F)Cc2cnc3[nH]c(CN4CCOCC4)cc3c21 [pemigatinib],0.923
8,COc1cc2nc(N3CCN(C(=O)C4COc5ccccc5O4)CC3)nc(N)c2cc1OC (configuration not stated) [Doxazosin Mesylate] + CCN1C(=O)N(c2c(F)c(OC)cc(OC)c2F)Cc2cnc3[nH]c(CN4CCOCC4)cc3c21 [pemigatinib],0.894
9,N#C/C(=C(/N)Sc1ccc(N)cc1)c1ccccc1C(F)(F)F + CCN1C(=O)N(c2c(F)c(OC)cc(OC)c2F)Cc2cnc3[nH]c(CN4CCOCC4)cc3c21 [pemigatinib],0.99
10,COc1cc(OC)c(NC(=O)Nc2cc(C)on2)cc1Cl + CCN1C(=O)N(c2c(F)c(OC)cc(OC)c2F)Cc2cnc3[nH]c(CN4CCOCC4)cc3c21 [pemigatinib],1.01
11,CCCc1ccc(OCC(=O)N(Cc2nc(-c3cccnc3)no2)C(C)C)cc1 + CCN1C(=O)N(c2c(F)c(OC)cc(OC)c2F)Cc2cnc3[nH]c(CN4CCOCC4)cc3c21 [pemigatinib],1.01
12,CNC(=O)c1ccc(N2C(=S)N(c3ccc(C#N)c(C(F)(F)F)c3)C(=O)C2(C)C)cc1F [Enzalutamide (MDV3100)] + CCN1C(=O)N(c2c(F)c(OC)cc(OC)c2F)Cc2cnc3[nH]c(CN4CCOCC4)cc3c21 [pemigatinib],0.932
13,CCN(CC)CCOCCOC(=O)C1(c2ccccc2)CCCC1 [Pentoxyverine Citrate] + CCN1C(=O)N(c2c(F)c(OC)cc(OC)c2F)Cc2cnc3[nH]c(CN4CCOCC4)cc3c21 [pemigatinib],1.01
14,CC#CCn1c(N2CCC[C@@H](N)C2)nc2c1c(=O)n(Cc1nc(C)c3ccccc3n1)c(=O)n2C [Linagliptin] + CCN1C(=O)N(c2c(F)c(OC)cc(OC)c2F)Cc2cnc3[nH]c(CN4CCOCC4)cc3c21 [pemigatinib],0.834
15,c1ccc(Cn2c(-c3ccc(OC[C@H](C4CCNCC4)n4c(-c5ccccc5)nc5ccccc54)cc3)nc3ccccc32)cc1 [Deltarasin] + CCN1C(=O)N(c2c(F)c(OC)cc(OC)c2F)Cc2cnc3[nH]c(CN4CCOCC4)cc3c21 [pemigatinib],1.02
16,Cc1cc(C(C)(C)C)cc(C)c1CC1=NCCN1 [Xylometazoline HCl] + CCN1C(=O)N(c2c(F)c(OC)cc(OC)c2F)Cc2cnc3[nH]c(CN4CCOCC4)cc3c21 [pemigatinib],1.01
17,CCN(CC)C(=O)C1(c2ccccc2)CC1CN (configuration not stated) [Milnacipran HCl] + CCN1C(=O)N(c2c(F)c(OC)cc(OC)c2F)Cc2cnc3[nH]c(CN4CCOCC4)cc3c21 [pemigatinib],0.929
18,COc1cc(NC(=O)c2ccccn2)ccc1Cl + CCN1C(=O)N(c2c(F)c(OC)cc(OC)c2F)Cc2cnc3[nH]c(CN4CCOCC4)cc3c21 [pemigatinib],0.921
19,CC(C)(C)c1cc(NC(=O)Nc2ccc(-c3cn4c(n3)sc3cc(OCCN5CCOCC5)ccc34)cc2)no1 [Quizartinib (AC220)] + CCN1C(=O)N(c2c(F)c(OC)cc(OC)c2F)Cc2cnc3[nH]c(CN4CCOCC4)cc3c21 [pemigatinib],1.03

row,SMILES,cell viability
1,Cc1ccc(-c2cc(C(F)(F)F)nn2-c2ccc(S(N)(=O)=O)cc2)cc1 [Celecoxib] + CCN1C(=O)N(c2c(F)c(OC)cc(OC)c2F)Cc2cnc3[nH]c(CN4CCOCC4)cc3c21 [pemigatinib],0.981
2,CC(C)[N+]1(C)[C@@H]2CC[C@H]1C[C@@H](OC(=O)C(CO)c1ccccc1)C2 (some centres not stated) [Ipratropium Bromide] + CCN1C(=O)N(c2c(F)c(OC)cc(OC)c2F)Cc2cnc3[nH]c(CN4CCOCC4)cc3c21 [pemigatinib],1.05
3,Nc1ccc(S(=O)(=O)Nc2nccs2)cc1 [Sulfathiazole] + CCN1C(=O)N(c2c(F)c(OC)cc(OC)c2F)Cc2cnc3[nH]c(CN4CCOCC4)cc3c21 [pemigatinib],0.924
4,O=C(O)c1cccc(-c2noc(-c3ccccc3F)n2)c1 [Ataluren (PTC124)] + CCN1C(=O)N(c2c(F)c(OC)cc(OC)c2F)Cc2cnc3[nH]c(CN4CCOCC4)cc3c21 [pemigatinib],0.9
5,CN[C@H]1CC[C@@H](c2ccc(Cl)c(Cl)c2)c2ccccc21 [Sertraline HCl] + CCN1C(=O)N(c2c(F)c(OC)cc(OC)c2F)Cc2cnc3[nH]c(CN4CCOCC4)cc3c21 [pemigatinib],0.987
6,CN1CCc2nc(C(=O)N[C@@H]3C[C@@H](C(=O)N(C)C)CC[C@@H]3NC(=O)C(=O)Nc3ccc(Cl)cn3)sc2C1 [Edoxaban] + CCN1C(=O)N(c2c(F)c(OC)cc(OC)c2F)Cc2cnc3[nH]c(CN4CCOCC4)cc3c21 [pemigatinib],1
7,OCCn1cc(-c2ccc3c(c2)CC/C3=N\O)c(-c2ccncc2)n1 + CCN1C(=O)N(c2c(F)c(OC)cc(OC)c2F)Cc2cnc3[nH]c(CN4CCOCC4)cc3c21 [pemigatinib],1.08
8,CC[C@H]1OC(=O)[C@H](C)[C@@H](O[C@H]2C[C@@](C)(OC)[C@@H](O)[C@H](C)O2)[C@H](C)[C@@H](O[C@@H]2O[C@H](C)C[C@H](N(C)C)[C@H]2O)[C@](C)(O)C[C@@H](C)CN(C)[C@H](C)[C@@H](O)[C@]1(C)O [Azithromycin] + CCN1C(=O)N(c2c(F)c(OC)cc(OC)c2F)Cc2cnc3[nH]c(CN4CCOCC4)cc3c21 [pemigatinib],1.02
9,CCN(CC)CCNC(=O)c1ccc(N)cc1 [Procainamide HCl] + CCN1C(=O)N(c2c(F)c(OC)cc(OC)c2F)Cc2cnc3[nH]c(CN4CCOCC4)cc3c21 [pemigatinib],0.933
10,NC[C@H](O)c1ccc(O)c(O)c1 [Noradrenaline bitartrate monohydrate] + CCN1C(=O)N(c2c(F)c(OC)cc(OC)c2F)Cc2cnc3[nH]c(CN4CCOCC4)cc3c21 [pemigatinib],1.04
11,CC(C=CC1(O)C(C)=CC(=O)CC1(C)C)=CC(=O)O (configuration not stated) [Abscisic Acid (Dormin)] + CCN1C(=O)N(c2c(F)c(OC)cc(OC)c2F)Cc2cnc3[nH]c(CN4CCOCC4)cc3c21 [pemigatinib],0.908
12,Cc1c(-c2ccc(O)cc2)n(Cc2ccc(OCCN3CCCCCC3)cc2)c2ccc(O)cc12 [Bazedoxifene HCl] + CCN1C(=O)N(c2c(F)c(OC)cc(OC)c2F)Cc2cnc3[nH]c(CN4CCOCC4)cc3c21 [pemigatinib],0.992
13,Cc1c(-c2ccc(O)cc2)n(Cc2ccc(OCCN3CCCCCC3)cc2)c2ccc(O)cc12 [Bazedoxifene Acetate] + CCN1C(=O)N(c2c(F)c(OC)cc(OC)c2F)Cc2cnc3[nH]c(CN4CCOCC4)cc3c21 [pemigatinib],1.07
14,C=C[C@]1(C)C[C@@H](OC(=O)CSC(C)(C)CNC(=O)[C@H](N)C(C)C)[C@]2(C)[C@H](C)CC[C@]3(CCC(=O)[C@H]32)[C@@H](C)[C@@H]1O [Valnemulin HCl] + CCN1C(=O)N(c2c(F)c(OC)cc(OC)c2F)Cc2cnc3[nH]c(CN4CCOCC4)cc3c21 [pemigatinib],1.02
15,CCc1cc2c(cc1CC)CC(NC[C@H](O)c1ccc(O)c3[nH]c(=O)ccc13)C2 [Indacaterol Maleate] + CCN1C(=O)N(c2c(F)c(OC)cc(OC)c2F)Cc2cnc3[nH]c(CN4CCOCC4)cc3c21 [pemigatinib],0.877
16,Cc1cc(C(C)Nc2ccccc2)c2nc(N3CCOCC3)cc(=O)n2c1 (configuration not stated) + CCN1C(=O)N(c2c(F)c(OC)cc(OC)c2F)Cc2cnc3[nH]c(CN4CCOCC4)cc3c21 [pemigatinib],0.86
17,N[C@H]1CC[C@H](N[C@@H]2C[C@H]2c2ccccc2)CC1 + CCN1C(=O)N(c2c(F)c(OC)cc(OC)c2F)Cc2cnc3[nH]c(CN4CCOCC4)cc3c21 [pemigatinib],0.887
18,NC1(Cc2ccc(Cl)cc2)CCN(c2ncnc3[nH]ccc23)CC1 + CCN1C(=O)N(c2c(F)c(OC)cc(OC)c2F)Cc2cnc3[nH]c(CN4CCOCC4)cc3c21 [pemigatinib],1.01
